Data taken from US20250304700A1, “ANTI-BLOOD DENDRITIC CELL ANTIGEN 2 ANTIBODIES AND USES THEREOF” (Biogen MA Inc., priority 2012, published 2025).

T1: surface human BDCA2 (Homo sapiens, UniProt Q8WTT0)
T1 construct: stably transfected DG44 CHO cells co-expressing full-length BDCA2 and FcεRIγcDNAs (human or cynomolgus monkey); expressed in transfected cells
T1 sequence (Q8WTT0 1-213): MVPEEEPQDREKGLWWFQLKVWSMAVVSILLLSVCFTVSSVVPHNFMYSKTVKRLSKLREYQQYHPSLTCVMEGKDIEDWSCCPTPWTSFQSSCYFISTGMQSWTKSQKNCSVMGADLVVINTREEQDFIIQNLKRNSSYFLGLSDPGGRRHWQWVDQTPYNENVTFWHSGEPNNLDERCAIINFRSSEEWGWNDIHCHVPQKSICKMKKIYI
T1 sequence (P30273 19-86 partner): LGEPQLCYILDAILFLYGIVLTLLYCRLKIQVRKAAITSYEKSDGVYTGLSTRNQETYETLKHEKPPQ

T2: human BDCA2 ectodomain (Homo sapiens, UniProt Q8WTT0)
T2 construct: huBDCA2 ectodomain: residues 257-425 above (underlined); murine IgG2a Fc (with G4S linker) (N, cleaved yes); made in house
T2 sequence (Q8WTT0 45-213): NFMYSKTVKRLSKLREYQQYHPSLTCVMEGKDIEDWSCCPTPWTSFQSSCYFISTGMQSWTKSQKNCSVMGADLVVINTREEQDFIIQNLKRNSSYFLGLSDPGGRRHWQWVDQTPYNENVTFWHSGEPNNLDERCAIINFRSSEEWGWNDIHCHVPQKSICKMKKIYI


Key:
surface human BDCA2 = molecular target: T1, surface human BDCA2; test: Direct binding dilution titration FACS on surface human BDCA2; conditions: surface expressed human BDCA2
Protocol: Expression vectors (ch24F4 heavy chain vectors pYL670 or pYL672 and ch24F4 light chain vector pYL671) were co-transfected into 293-EBNA cells and transfected cells were tested for antibody secretion and specificity (empty vector- and a molecularly cloned irrelevant mAb vector-transfected cells served as controls). […] Direct FACS binding to surface human BDCA2 confirmed the specificity of ch24F4. The EC50 binding of both variants of ch24F4 was equivalent to that of the murine 24F4 mAb by direct binding to surface expressed human BDCA2 by dilution titration FACS assay. Stable CHO cell lines secreting ch24F4-huIgG1, kappa mAb and agly ch24F4-huIgG4/G1 hybrid kappa mAb were produced by co-transfection with pYL672/pYL671 and pYL670/pYL671, respectively.
Site-directed mutagenesis was performed using Agilent's QuikChange II mutagenesis kit following the manufacturer's recommended protocol. The C95S variant was constructed using the mutagenic primer 5′ GCAACCTATTACTGTCAACAAAGTAATGAGGATCCTCGGAC 3′ (SEQ ID NO: 38) and its reverse complement, which introduced a new HincII site, producing plasmid pEAG2678. The C95T variant was constructed using the mutagenic primer 5′ CAACCTATTACTGTCAGCAAACTAATGAAGATCCTCGGACGTTCG 3′ (SEQ ID NO: 39) and its reverse complement, which removed a BamHI site, producing plasmid pEAG2679. […]

human BDCA2 ectodomain = molecular target: T2, human BDCA2 ectodomain; test: Octet binding of mAbs on anti-human Fc tips to monomeric huBDCA2; conditions: for Octet binding and dissociation kinetics, in words: conditioned medium
Protocol: Site-directed mutagenesis was performed using Agilent's QuikChange II mutagenesis kit following the manufacturer's recommended protocol. The C95S variant was constructed using the mutagenic primer 5′ GCAACCTATTACTGTCAACAAAGTAATGAGGATCCTCGGAC 3′ (SEQ ID NO: 38) and its reverse complement, which introduced a new HincII site, producing plasmid pEAG2678. The C95T variant was constructed using the mutagenic primer 5′ CAACCTATTACTGTCAGCAAACTAATGAAGATCCTCGGACGTTCG 3′ (SEQ ID NO: 39) and its reverse complement, which removed a BamHI site, producing plasmid pEAG2679. Mutated plasmids were identified by screening for the introduced restriction site changes. The full-length light chain cDNA sequences in the resultant plasmids were confirmed by DNA sequencing. Wildtype ch24F4 and the C95S and C95T variant mAbs were expressed transiently in 293E cells by co-transfection of pYL672 and pYL671, pEAG2678 or pEAG2679. Conditioned medium was harvested at 2 days post-transfection. Titers (assayed by Octet on anti-human Fc tips) of both variants were similar to that of wildtype ch24F4, and Western blots of nonreducing SDS-PAGE indicated no gross aggregation or obvious clipping relative to wildtype ch24F4 mAb. […] Conditioned medium containing ch24F4 and the C95 variant mAbs was assayed by Octet for binding to human BDCA2 ectodomain. Antibodies from conditioned medium from transiently transfected cells were bound to anti-human Fc tips, then monomeric huBDCA2 was flowed over the Octet tips, to examine binding and dissociation.
Conditioned medium containing ch24F4 and all hu24F4 variant mAbs was assayed by Octet for binding to human BDCA2 ectodomain. The monomeric huBDCA2 ectodomain was prepared by proteolytic cleavage from the purified muIgG2a Fc-huBDCA2 fusion protein (relevant plasmid: pEAG2423). Antibodies from conditioned medium from transiently transfected cells were bound to anti-human Fc tips, and then monomeric huBDCA2 was flowed over the Octet tips, to examine binding and dissociation.
To explore the possibility of enhancing hu24F4 affinity by substitution at the position of the 24F4 version L1 CDR L3 unpaired cysteine (C95S in hu24F4 light chain expression vector pYL740), a number of version L1 variants were constructed by site-directed mutagenesis. Backmutation to the unpaired cysteine, i.e., S95C, was constructed by site-directed mutagenesis producing plasmid pYL749. Variants S95T, S95A, and S95V were constructed by site-directed mutagenesis producing plasmids pYL750, pYL751, and pYL752, respectively. The full-length light chain cDNA sequences in the resultant plasmids were confirmed by DNA sequencing. […]

[1] = Example 5, conditioned medium, hu24F4 variants

apparent EC50 of direct binding by FACS, in words (surface human BDCA2) | Octet binding and dissociation kinetics, in words (human BDCA2 ectodomain) | kdis (human BDCA2 ectodomain; [1]) [s⁻¹] | kon (human BDCA2 ectodomain; [1]) [M⁻¹ s⁻¹] | Molecule
equivalent to that of wildtype ch24F4 | equivalent | – | – | C95S variant: ch24F4 light chain CDRL3 variant C95S (antibody) heavy: DVKLVESGGGLVKPGGSLKLSCAASGFTFSTYTMSWVRQTPEKRLEWVATISPGDSFGYYYPDSVQGRFTISRDNAKNTLFLQMSSLKSEDTAMYYCTRDIYYNYGAWFAYWGQGTLVTVSA[human IgG1 constant region not written out] light: DIVLTQSPASLAVSLGQRATISCKASQSVDYDGDSYMNWYQQKPGQPPKLLIYAASTLESGVPARFSGSGSGTDFTLNIHPVEEEDAATYYCQQSNEDPRTFGGGTKLEIKRTVAAPSVFIFPPSDEQLKSGTASVVCLLNNFYPREAKVQWKVDNALQSGNSQESVTEQDSKDSTYSLSSTLTLSKADYEKHKVYACEVTHQGLSSPVTKSFNRGEC
– | – | 0.00349 | 1.61e+06 | ch24F4: murine-human chimera, mu24F4 variable regions linked to human IgG1 and kappa constant regions (antibody) heavy: DVKLVESGGGLVKPGGSLKLSCAASGFTFSTYTMSWVRQTPEKRLEWVATISPGDSFGYYYPDSVQGRFTISRDNAKNTLFLQMSSLKSEDTAMYYCTRDIYYNYGAWFAYWGQGTLVTVSA[human IgG1 constant region not written out] light: DIVLTQSPASLAVSLGQRATISCKASQSVDYDGDSYMNWYQQKPGQPPKLLIYAASTLESGVPARFSGSGSGTDFTLNIHPVEEEDAATYYCQQCNEDPRTFGGGTKLEIKRTVAAPSVFIFPPSDEQLKSGTASVVCLLNNFYPREAKVQWKVDNALQSGNSQESVTEQDSKDSTYSLSSTLTLSKADYEKHKVYACEVTHQGLSSPVTKSFNRGEC
reduced by several-fold | faster than that of wildtype ch24F4 | – | – | C95T variant: ch24F4 light chain CDRL3 variant C95T (antibody) heavy: DVKLVESGGGLVKPGGSLKLSCAASGFTFSTYTMSWVRQTPEKRLEWVATISPGDSFGYYYPDSVQGRFTISRDNAKNTLFLQMSSLKSEDTAMYYCTRDIYYNYGAWFAYWGQGTLVTVSA[human IgG1 constant region not written out] light: DIVLTQSPASLAVSLGQRATISCKASQSVDYDGDSYMNWYQQKPGQPPKLLIYAASTLESGVPARFSGSGSGTDFTLNIHPVEEEDAATYYCQQTNEDPRTFGGGTKLEIKRTVAAPSVFIFPPSDEQLKSGTASVVCLLNNFYPREAKVQWKVDNALQSGNSQESVTEQDSKDSTYSLSSTLTLSKADYEKHKVYACEVTHQGLSSPVTKSFNRGEC
